From patent US20230416360A1 (SIMCERE ZAIMING PHARMACEUTICAL, published 2023)

Tests used:
[1] = target: T1, human CD22 (full length, on cells) (human, UniProt P20273 20-847); assay: FACS, CHO-K1-human CD22 2C4 cells
T1 construct: Raji cells carry endogenous human CD22; also called CHO-K1-human CD22 2C4; CHO-K1-human CD22 1G5
T1 sequence: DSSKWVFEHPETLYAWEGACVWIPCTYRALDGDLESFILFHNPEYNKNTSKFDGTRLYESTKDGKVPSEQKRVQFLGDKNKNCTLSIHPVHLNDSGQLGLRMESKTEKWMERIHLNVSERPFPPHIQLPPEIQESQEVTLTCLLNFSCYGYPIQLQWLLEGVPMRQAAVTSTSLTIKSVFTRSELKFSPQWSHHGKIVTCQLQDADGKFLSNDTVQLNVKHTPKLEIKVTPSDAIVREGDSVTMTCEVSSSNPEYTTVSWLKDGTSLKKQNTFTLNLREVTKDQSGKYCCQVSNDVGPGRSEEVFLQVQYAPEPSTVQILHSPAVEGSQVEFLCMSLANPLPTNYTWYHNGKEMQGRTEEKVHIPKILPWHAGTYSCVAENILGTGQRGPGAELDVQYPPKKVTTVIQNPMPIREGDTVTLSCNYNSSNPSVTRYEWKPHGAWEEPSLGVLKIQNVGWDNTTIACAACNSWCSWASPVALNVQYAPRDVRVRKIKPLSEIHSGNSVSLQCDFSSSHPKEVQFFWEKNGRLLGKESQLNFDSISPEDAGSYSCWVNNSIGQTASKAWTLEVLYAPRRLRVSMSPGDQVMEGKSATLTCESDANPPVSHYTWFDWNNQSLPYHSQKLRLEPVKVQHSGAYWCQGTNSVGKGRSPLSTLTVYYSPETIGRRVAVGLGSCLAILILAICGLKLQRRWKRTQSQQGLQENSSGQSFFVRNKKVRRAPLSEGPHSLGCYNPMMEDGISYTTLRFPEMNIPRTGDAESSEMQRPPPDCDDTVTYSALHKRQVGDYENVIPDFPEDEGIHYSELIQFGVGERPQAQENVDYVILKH
Description: (§1) The required cells were scale-up cultured in a T-75 cell culture flask to the logarithmic growth phase. For the adherent cell CHO-K1, the medium was aspirated, the cells were washed 2 times with PBS buffer, and then digested with trypsin. After the digestion was terminated, the cells were washed 2 times with PBS buffer. For suspension cell Raji, the medium supernatant was directly centrifuged and discarded, and the cell pellet was washed 2 times with PBS. […] The mixture was centrifuged and washed 3 times with PBS buffer, Alexa Flour 488-labeled secondary antibody (purchased from Invitrogen, catalog number: A-11013) was added at 50 μl/well, and incubated on ice for 1 hour. The obtained mixture was centrifuged and washed 5 times with PBS, and FACS (FACS Canto™, purchased from BD Company) was used for detection and result analysis. Data analysis was performed by software (CellQuest) to obtain the mean fluorescence density (MFI) of the cells. And then software (GraphPad Prism8) was used for analysis, data fitting, and EC50 value calculation.

[2] = target: T1, human CD22 (full length, on cells); assay: FACS, Raji cells
Description: as §1

human CD22-ECD-His = target: T2, human CD22-ECD-His (human, UniProt P20273 20-687); assay: ELISA, antibody coated 2 ug/mL, hCD22-ECD-His titrated
T2 construct: Made in HEK293E, purified on nickel column; also called hCD22-ECD-His; recombinant human CD22-ECD His; not shown: His tag
T2 sequence: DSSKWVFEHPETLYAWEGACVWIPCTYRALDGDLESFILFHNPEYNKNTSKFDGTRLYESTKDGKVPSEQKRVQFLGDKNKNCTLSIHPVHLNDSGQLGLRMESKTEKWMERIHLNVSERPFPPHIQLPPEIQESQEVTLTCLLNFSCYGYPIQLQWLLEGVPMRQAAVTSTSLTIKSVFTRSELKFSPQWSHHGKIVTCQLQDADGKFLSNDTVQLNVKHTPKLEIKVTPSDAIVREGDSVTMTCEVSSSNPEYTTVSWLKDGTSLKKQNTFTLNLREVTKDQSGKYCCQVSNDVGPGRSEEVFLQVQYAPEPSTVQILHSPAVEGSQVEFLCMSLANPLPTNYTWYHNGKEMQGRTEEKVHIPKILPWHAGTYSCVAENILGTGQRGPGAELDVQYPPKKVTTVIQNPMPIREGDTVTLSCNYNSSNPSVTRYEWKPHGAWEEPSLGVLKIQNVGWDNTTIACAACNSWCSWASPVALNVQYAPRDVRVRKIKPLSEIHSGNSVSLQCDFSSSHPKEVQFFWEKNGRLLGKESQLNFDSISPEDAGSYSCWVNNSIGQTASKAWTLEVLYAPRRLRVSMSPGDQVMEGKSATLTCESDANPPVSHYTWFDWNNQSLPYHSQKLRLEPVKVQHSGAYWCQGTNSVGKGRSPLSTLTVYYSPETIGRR

EC50 [1]: 2.5 nM | Max MFI [1]: 15200 | EC50 [2]: 3.8 nM | Max MFI [2]: 3080 | EC80 (human CD22-ECD-His): 0.93 nM
B1: hL22 scFv-hFc (Fc fusion)
chain: QVQLQQSGAEVKKPGSSVKVSCKASGYTFTSYWLHWVRQAPGQGLEWIGYINPRNDYTEYNQNFKDKATITADESTNTAYMELSSLRSEDTAFYFCARRDITTFYWGQGTTVTVSSGGGGSGGGGSGGGGSDIQLTQSPSSLSASVGDRVTMSCKSSQSVLYSANHKNYLAWYQQKPGKAPKLLIYWASTRESGVPSRFSGSGSGTDFTFTISSLQPEDIATYYCHQYLSSWTFGGGTKLEIK[human IgG1 Fc with changes cut from this listing]
notes: Control antibody as scFv-hFc; also called HL22 scFv-Fc
